Results as given in PubChem BioAssay AID1468 (National Center for Advancing Translational Sciences (NCATS), 2008).
The campaign covered roughly 280,000 compounds. About 1,100 (0.39%) were called active. This list was built around the results that the source calls inconclusive (neither active nor inactive); the mix of calls is not that of the screen. Calls come from the whole dose curve; as a rule, active = well fitted inhibition curve with a large enough effect; inconclusive = small, poorly fitted or top-dose-only effect, or effect the other way; inactive = flat fitted curve, though single readings scatter. No potency is given beside an inconclusive call; the fits are too rough.

Each compound was assayed against Microtubule-associated protein tau (Homo sapiens) (UniProt P10636) (assay: qHTS for Inhibitors of Tau Fibril Formation, Fluorescence Polarization). Settings: K18 P301L tau heparin fibrillization, Alexa594 FP, 6 h; series mostly up to 57.7 µM; activity, negative = inhibition: at the top concentration.
Chain of UniProt P10636 (P10636 whole entry, looked up): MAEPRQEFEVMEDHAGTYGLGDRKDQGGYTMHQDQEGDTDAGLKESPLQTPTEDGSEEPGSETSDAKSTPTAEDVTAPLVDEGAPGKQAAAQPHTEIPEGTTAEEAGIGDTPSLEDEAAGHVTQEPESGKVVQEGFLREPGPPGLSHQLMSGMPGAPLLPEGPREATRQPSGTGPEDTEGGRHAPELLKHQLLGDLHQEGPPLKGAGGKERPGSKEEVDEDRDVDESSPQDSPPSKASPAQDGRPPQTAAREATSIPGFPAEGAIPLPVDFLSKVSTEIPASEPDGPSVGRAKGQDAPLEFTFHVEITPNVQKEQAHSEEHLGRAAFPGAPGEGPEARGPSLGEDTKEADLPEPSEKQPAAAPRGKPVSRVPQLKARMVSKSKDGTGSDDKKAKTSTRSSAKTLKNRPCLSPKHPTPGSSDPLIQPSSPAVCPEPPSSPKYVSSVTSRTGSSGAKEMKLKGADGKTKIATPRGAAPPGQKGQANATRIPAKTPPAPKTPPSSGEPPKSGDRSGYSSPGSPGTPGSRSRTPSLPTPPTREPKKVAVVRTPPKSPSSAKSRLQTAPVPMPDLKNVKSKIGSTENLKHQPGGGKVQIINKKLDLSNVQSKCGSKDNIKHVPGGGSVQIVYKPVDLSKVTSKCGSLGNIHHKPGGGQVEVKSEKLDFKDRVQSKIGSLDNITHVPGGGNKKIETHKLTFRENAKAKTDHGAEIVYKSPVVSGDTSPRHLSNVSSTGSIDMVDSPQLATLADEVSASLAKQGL
How it was run: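 Quantitative HTS format: compounds meet 15 uM recombinant K18 P301L tau and Alexa 594-tau tracer in 100 mM sodium acetate pH 7; 20 uM heparin triggers fibrillization at 37 C over 6 hr; FP gives the signal.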
% is set by controls: 0 for no effect and ±100 for the full control effect; potency is the fitted concentration of half-maximal effect; tags give direction and shape of the fitted curve.
Note: nearly all actives have a fitted effect of over 55% in size.

CCOC(=O)N1CCc2c(sc3c2c(=O)n(Cc2ccccc2)c(=O)n3Cc2c(F)cccc2Cl)C1 was tested. Which “activity, negative = inhibition” value did it give?
The value was inactive: 1.56%.

Which “activity, negative = inhibition” value does the source give for COc1ccccc1NC(=O)N1c2ccc(F)cc2CCC1C (centres undefined) here?
Its value is inactive: 17.2%.

How did the Potency turn out when Oc1c(C2=NCCNC(C(F)(F)F)=C2)ccc2ccccc12 was run?
Its Potency is inconclusive [activator, single point].

Which Potency does the source give for COC(=O)c1ccc(-n2nc(C(F)(F)F)c3c2-c2ccoc2CC3)cc1 here?
Its Potency is inconclusive [inhibitor, single point].

For Cc1c(Cl)cccc1Nc1sc(C(=O)c2ccccc2)c(N)c1S(=O)(=O)c1ccccc1, which Potency is on record?
Its Potency is inconclusive [inhibitor, single point].

How did the Potency turn out when CCn1c(C(=O)NCCCN2CCc3ccccc3C2)cc2sccc21 was run?
The Potency was inconclusive [inhibitor, single point].

Which “activity, negative = inhibition” value does the source give for Cc1nn2c(=O)cc(COC(=O)c3ccccc3NC(=O)c3ccccc3C)nc2s1 here?
Its value is inactive: -7.57%.

Which Potency does the source give for COC(=O)c1c(NC(=O)CCCOc2ccc(C)cc2)sc2c1C(C(=O)OC)CC2 (centres undefined) here?
The Potency was inconclusive [inhibitor, partial curve].

For O=C(NNC1=C(C(=O)C(F)(F)F)CCC1)c1cccc(Cl)c1, which Potency is on record?
Its Potency is inconclusive [activator, single point].

With Cc1cc2nc3c(=O)n(CCc4ccccc4)c(=O)[nH]c3nc2cc1N as the compound, how does the Potency read?
The Potency was inconclusive [inhibitor, single point].

Which Potency does the source give for COc1ccc(/C=N/NC(N)=S)cc1OC(=O)c1cccc2ccccc12 here?
The Potency was inconclusive [inhibitor, single point].

For Cc1cc(C)n2nc(CC(=O)NCc3ccccc3Cl)nc2n1, which “activity, negative = inhibition” value is on record?
Its value is inactive: -0.29%.

For CCOC(=O)C1CCCN(S(=O)(=O)c2ccc(NC(C)=O)cc2)C1 (centres undefined), which “activity, negative = inhibition” value is on record?
Its value is inactive: -0.25%.

How did the Potency turn out when Cc1ccc(C(=O)Oc2cccc(NC(=O)c3cccs3)c2)cc1S(=O)(=O)N1CCOCC1 was run?
Its Potency is inconclusive [inhibitor, partial curve].

Which “activity, negative = inhibition” value does the source give for O=C(c1cccc([N+](=O)[O-])c1)n1nc(-c2ccccc2)nc1NCc1ccccc1 here?
The value was inactive: 7.42%.

How did the “activity, negative = inhibition” value turn out when O=C(CSCc1ccco1)c1ccc(Cl)s1 was run?
Its value is inactive: -5.09%.

How did the Potency turn out when Cc1ccc(-c2cc(C(=O)N/N=C/c3ccco3)n[nH]2)s1 was run?
The Potency was inconclusive [inhibitor, single point].

How did the Potency turn out when CCOC(=O)c1ccc(N2C(=O)c3n[nH]c(-c4cccs4)c3C2c2cccc(F)c2)cc1 (centres undefined) was run?
The Potency was inconclusive [inhibitor, partial curve].

NC1=C(Br)C(=O)c2ccccc2C1=O was tested. Which “activity, negative = inhibition” value did it give?
Its value is inactive: -12.8%.

Which Potency does the source give for O=C(Cn1c(=O)n(Cc2nc(-c3ccccc3)no2)c(=O)c2cc3c(cc21)OCO3)Nc1ccc(Cl)cc1 here?
Its Potency is active: 20 µM.

With OC(CNCCc1ccc(Cl)cc1)COCc1ccco1 (centres undefined) as the compound, how does the “activity, negative = inhibition” value read?
Its value is inactive: -6.21%.

Which Potency does the source give for CC(C)C(c1nnnn1Cc1ccccc1)N1CCc2ccccc2C1 (centres undefined) here?
Its Potency is inconclusive [inhibitor, single point].

For O=C(c1cc(-c2ccc(Br)cc2)n[nH]1)N1CCN(S(=O)(=O)c2ccc(Br)cc2)CC1, which Potency is on record?
The Potency was inconclusive [inhibitor, single point].

With CC(=O)c1cc(-c2ccc(F)cc2)n(CCC(=O)Nc2cc(C)[nH]n2)c1C as the compound, how does the “activity, negative = inhibition” value read?
The value was inactive: -1.78%.

With O=C1CC(/C=C/c2ccccn2)=Nc2ccccc2N1 as the compound, how does the “activity, negative = inhibition” value read?
The value was inactive: 4.33%.

Which Potency does the source give for O=C(Cn1ccn(-c2ccc(F)cc2)c(=O)c1=O)NCCc1ccccc1 here?
Its Potency is inconclusive [inhibitor, partial curve].

How did the “activity, negative = inhibition” value turn out when Cc1cccc(C(=O)Nc2nnc(-c3ccncc3)o2)c1 was run?
Its value is inactive: -11.6%.

How did the Potency turn out when CCOC(=O)c1cc2sc(C)cc2n1CC(=O)Nc1ccc2c(c1)OCCO2 was run?
Its Potency is inconclusive [inhibitor, partial curve, poor fit].

COc1ccc2oc(-c3ccc(C)c(NC(=O)c4cccnc4)c3)nc2c1 was tested. Which Potency did it give?
The Potency was inconclusive [inhibitor, single point].

How did the Potency turn out when Cc1ccc(CNC(=O)c2ccc(-n3c(C)cc4c3CCCC4)cc2)cc1 was run?
The Potency was inconclusive [inhibitor, partial curve].

With CC(C)(C)C1CCc2oc3ccc(NS(=O)(=O)c4cc(Cl)ccc4Cl)cc3c2C1 (centres undefined) as the compound, how does the Potency read?
The Potency was inconclusive [inhibitor, partial curve].

Which “activity, negative = inhibition” value does the source give for c1ccc(Cn2ncc3c(NCc4ccco4)ncnc32)cc1 here?
The value was inactive: 1.25%.

Which “activity, negative = inhibition” value does the source give for Cc1ccccc1NC(=O)c1ccc(N/N=C/c2ccccc2O)c([N+](=O)[O-])c1 here?
The value was inactive: -0.791%.

Which activity, negative = inhibition does the source give for COC(=O)NC(/C(C(=O)OC)=C(\C)NCc1ccccc1)c1ccc(Cl)cc1 (centres undefined) here?
Its activity, negative = inhibition is inactive: -7.51% [at 11.6 µM].

For Cc1cc(C(=O)COC(=O)c2ccc(O)cc2)c(C)n1CCc1ccc(F)cc1, which Potency is on record?
Its Potency is inconclusive [inhibitor, partial curve].

How did the “activity, negative = inhibition” value turn out when CCCCn1c(NCc2ccccc2O)nc2ccccc21 was run?
Its value is inactive: 8.02%.

With Cn1c2ccccc2c2cnn(CC(=O)Nc3ccc(Cl)cc3)c(=O)c21 as the compound, how does the “activity, negative = inhibition” value read?
The value was inactive: 1.82%.

For O=C(CSc1nnc2c3ccccc3c3ccccc3c2n1)Nc1ccccc1F, which Potency is on record?
Its Potency is inconclusive [inhibitor, single point].

How did the Potency turn out when CC(=O)C1=C(C)NC(SCC(=O)c2cc(Cl)ccc2Cl)=C(C#N)C1c1ccco1 (centres undefined) was run?
The Potency was inconclusive [inhibitor, partial curve].

Which Potency does the source give for O=C(Oc1ccccc1C(=S)N1CCCCC1)c1cc([N+](=O)[O-])cc([N+](=O)[O-])c1 here?
The Potency was inconclusive [inhibitor, partial curve].

For CC(=O)c1ccc(NC(=S)Nc2ccc(Br)c(Cl)c2)cc1, which Potency is on record?
The Potency was inconclusive [inhibitor, single point].

For CNC(=O)c1nnsc1S(=O)c1ccc(Cl)cc1 (centres undefined), which Potency is on record?
Its Potency is inconclusive [inhibitor, full curve, poor fit].

With O=C(Nc1ccccc1C(=O)Nc1ccccc1C(=O)NCc1ccco1)c1ccco1 as the compound, how does the Potency read?
Its Potency is inconclusive [inhibitor, partial curve].

Cc1cccc(N2CCN(C(=O)CN(C)S(=O)(=O)c3ccc4c(c3)CCC(=O)N4)CC2)c1C was tested. Which Potency did it give?
Its Potency is inconclusive [activator, single point].

Which Potency does the source give for O=S(=O)(Nc1nc2ccccc2nc1Nc1ccc2c(c1)OCO2)c1ccccc1 here?
Its Potency is inconclusive [activator, partial curve].

With COc1ccccc1Sc1nc(-c2ccccc2)ncc1OC as the compound, how does the Potency read?
Its Potency is inconclusive [inhibitor, partial curve].

How did the Potency turn out when N[C@@H](Cc1ccc(O)cc1)c1nnc([C@H](CC(=O)O)NC(=O)C2CCNCC2)o1 was run?
Its Potency is inconclusive [inhibitor, single point].

For CCOc1c(Cl)cc(C(=O)Nc2ccccc2C(=O)O)cc1Cl, which Potency is on record?
The Potency was inconclusive [activator, single point].

For Clc1ccc(N/N=C/c2ccncc2)cc1Cl, which Potency is on record?
Its Potency is inconclusive [activator, partial curve, poor fit].

How did the Potency turn out when CCOC(=O)C1=C(c2ccccc2)NC(SCC(=O)Nc2ccc(C)cc2)=C(C#N)C1c1ccco1 (centres undefined) was run?
Its Potency is inconclusive [inhibitor, partial curve].

O=S(=O)(c1cccc(C(F)(F)F)c1)n1c(/C=C/c2ccccc2)nc2ccccc21 was tested. Which Potency did it give?
Its Potency is inconclusive [inhibitor, partial curve, poor fit].

How did the “activity, negative = inhibition” value turn out when Cc1ccc(C(NC(=O)N2CCN(C)CC2)C(Cl)Cl)cc1F (centres undefined) was run?
The value was inactive: 5.79%.

With CCCc1nnc(NC(=O)Cc2coc3cc(C)cc(C)c23)s1 as the compound, how does the Potency read?
Its Potency is inconclusive [inhibitor, partial curve, poor fit].

Which “activity, negative = inhibition” value does the source give for Cc1ccc(C(=O)N2CCc3cc(CNC(=O)COc4ccccc4)ccc32)cc1 here?
The value was inactive: 7.37%.

COC(=O)c1c(NC(=O)C2CC=CCC2C(=O)O)sc(C(N)=O)c1C (centres undefined) was tested. Which Potency did it give?
Its Potency is inconclusive [inhibitor, single point].

How did the Potency turn out when O=Nc1c(-c2c(O)[nH]c3cc(Br)ccc23)[nH]c2ccccc12 was run?
The Potency was inconclusive [inhibitor, partial curve].

Which “activity, negative = inhibition” value does the source give for Brc1cccc(-c2cnc3n2CCCCC3)c1 here?
Its value is inactive: 2.51%.

With CC(C)c1ccc(NC(=O)CN2C(=O)COc3ccc(S(=O)(=O)Nc4ccccc4)cc32)cc1 as the compound, how does the Potency read?
The Potency was inconclusive [inhibitor, single point].

For O=C(Nc1ccc(Br)cc1)C1CCN(S(=O)(=O)c2cccc3nsnc23)CC1, which Potency is on record?
The Potency was inconclusive [inhibitor, partial curve, poor fit].

With Cc1onc(-c2ccccc2)c1C(=O)N/N=C/C(Br)=C/c1ccccc1 as the compound, how does the Potency read?
The Potency was inconclusive [inhibitor, single point].

Which Potency does the source give for Cc1cccc(NC(=O)N(Cc2cc3cc(C)cc(C)c3[nH]c2=O)CC2COCCO2)c1 (centres undefined) here?
Its Potency is inconclusive [activator, single point].

How did the Potency turn out when COC(=O)c1cc(NC(=O)c2cccnc2)ccc1N1CCOCC1 was run?
The Potency was inconclusive [activator, single point].

COc1ccccc1OCC(=O)NCCSCc1cccc(Cl)c1 was tested. Which “activity, negative = inhibition” value did it give?
The value was inactive: 1.79%.

CSc1cccc(NC(=O)CN(c2ccccc2)S(=O)(=O)N(C)C)c1 was tested. Which Potency did it give?
Its Potency is inconclusive [inhibitor, full curve, poor fit].

With CCC1(CC)Cc2ccccc2-c2nc(NCCO)[nH]c(=O)c21 as the compound, how does the “activity, negative = inhibition” value read?
Its value is inactive: -0.628%.

Cc1[nH]c2ccc(C(C)C)cc2c1CC(=O)O was tested. Which “activity, negative = inhibition” value did it give?
Its value is inactive: 7.21%.

How did the Potency turn out when CSc1nc(Oc2ccc3ccccc3c2)c2ccccc2n1 was run?
The Potency was inconclusive [inhibitor, partial curve, poor fit].

For CCOc1ccc(C2Sc3ccccc3NC3=C2C(=O)OC3)cc1 (centres undefined), which Potency is on record?
The Potency was inconclusive [inhibitor, partial curve].

For O=C1C(CSCc2ccccc2)NC(=S)N1c1ccccc1 (centres undefined), which Potency is on record?
The Potency was inconclusive [inhibitor, partial curve].
